We go through 80 sequences from the supplement of paper PMC10681739.

± gives the standard deviation of the averaged measurements. In all, about 4,100 sequences were measured (“arbitrary fluorescence units”: median about 780, highest 2% from about 22,000 on). Some of the results follow.

This assay concerns the target T1, ETS1 (UniProt P14921).
T1 sequence: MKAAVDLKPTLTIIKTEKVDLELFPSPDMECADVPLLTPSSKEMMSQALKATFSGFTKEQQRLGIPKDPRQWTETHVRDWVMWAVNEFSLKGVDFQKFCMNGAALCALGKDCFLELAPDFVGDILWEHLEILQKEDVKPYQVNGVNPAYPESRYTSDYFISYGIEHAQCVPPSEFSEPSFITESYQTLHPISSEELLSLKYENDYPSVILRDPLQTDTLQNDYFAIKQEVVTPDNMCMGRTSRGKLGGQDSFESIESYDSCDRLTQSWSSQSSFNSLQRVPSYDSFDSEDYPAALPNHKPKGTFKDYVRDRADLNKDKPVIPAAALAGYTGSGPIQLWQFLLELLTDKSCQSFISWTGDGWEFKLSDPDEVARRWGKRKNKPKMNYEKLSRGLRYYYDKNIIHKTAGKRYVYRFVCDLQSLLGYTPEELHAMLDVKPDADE
Nature of the assay: ETS1 binding intensity (PBM fluorescence), ETS1 alone (arbitrary fluorescence units); higher = stronger binding. The following applies: ETS1 concentration 1 nM; RUNX1 concentration 0 nM. The essentials: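 Double-stranded Agilent 4 × 180k arrays held 36-bp genomic probes whose RUNX1 partner site was mutated, and these were incubated with 1 nM full-length recombinant human ETS1 in the absence of RUNX1 under standard PBM protocols. Bound protein was labelled with anti-ETS1 antibody (Cell Signaling Technology 14069) plus an Alexa488-conjugated secondary and read on a GenePix 4400A, with four spots printed per sequence. Binding level is reported as raw spot fluorescence intensity summarised over replicate spots.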
CTCACTTCCCCGGCAGCTCCCTCGCCCCGACCCCAG gave an ETS1 binding intensity of 1000.

Sequence GAAAGCTCAGGCACGGCCGGGCCACCAGGAAAACAC had an ETS1 binding intensity of 342.

Take ACGTGCACCGGCGGCTTGCGCGATTCCGGCGTTGCA: the ETS1 binding intensity was 321.

As for CAATCAACCCCAATGTGACCCTACAGGCGGAAAAAA, the ETS1 binding intensity was determined as 406.

Take TGGGGGCGGAAGCCTAAACCCCTCCCTCAGCCAGTC: the ETS1 binding intensity came to 922.

Regarding GGACGCCGCCGGAAGCGCGACCTGCACTCCCGGTAG, the ETS1 binding intensity was 3560.

The sequence CTAGCCACCTCGGCCCCACCCTCTTCCGGCCTCAGC displayed an ETS1 binding intensity of 1820.

GTCACGCGCCGGATCCAACCCCCAATCACTTTAGCC showed an ETS1 binding intensity of 409.

As for AACAAGGCTGTAGGTGAACCCCAGCTTCCTGCAAAG, the ETS1 binding intensity was 702.

GTCACAGCTGCAGAGCGCCCGACTTCCCAGAAGGCA yielded an ETS1 binding intensity of 351.

As for GGCGCCCGGGAAACTGTGTGGCGCTGCAGGCCGCGC, the ETS1 binding intensity is 341.

In turn, GCGGAGCACCTCCCAGAGAGGGAAGGAAATGCCAGC had an ETS1 binding intensity of 449.

Take CGGCCTCATCCACTCAGCGACCGGAAGGGGGAAGAA: the ETS1 binding intensity was 3410.

In the case of AACTACTGCAGCTTCAAAATCCGGATGCGCCGGTAT, the ETS1 binding intensity was 766.

For the sequence TCCGGAAATAGATAATATCTAGTTAAACCCCAAAAT, the ETS1 binding intensity was 2460.

The sequence TTCACGCTCCGTAAGCTCGCTCCTTCCGGGACGCAG returned an ETS1 binding intensity of 643.

Sequence CCTGCTGCTGTCAGCCCTGTCTCTTCCTGTTTCTGC returned an ETS1 binding intensity of 1030.

GGAGTGAACAACCGAAACAGATAGGGAAGTGACACA showed an ETS1 binding intensity of 353.

For the sequence CCAGGCGTTTCCGGGTTCCCGAGGTCCCGTCCCCCA, the ETS1 binding intensity amounted to 10500.

On to CTGAAGTCACAAAATGACGTCACTTTCCTGCTTTCT, for which the ETS1 binding intensity was 460.

For TTACCCCGGCGGAACGGAGGCCTGCAGTCGCGGCGG, the ETS1 binding intensity was 374.

TACGCTTCTCCGGCCGCCTAACCCGGAAGCGAAACC gave an ETS1 binding intensity of 1340.

Consider CGCCTGGTGTCCGGTCCCGGGGCCGAAGGGTCCGGC, for which the ETS1 binding intensity was 2090.

Regarding GGTCACATCCTTTCCCTTCTGTGTCTCAGCCCCAGT, the ETS1 binding intensity was 4770.

For the sequence CCAGAGGGCGGAAGTGGGAGCTGCGACGGCGCTCCC, the ETS1 binding intensity was determined as 7030.

Turning to GCCCGCCCCGGAAGTGCAAACTGTGTGCTCTGGCAG, the ETS1 binding intensity is 8350.

Sequence TAAACTGGACCTCGAAGGGAATAGCCGGAACCCGCC registered an ETS1 binding intensity of 341.

ATCACTCACCAAAAAAGTCCCTTCACACTTCCTCCC registered an ETS1 binding intensity of 634.

With TCCTCCACCTCAGAAAGGCAACCGGATCCTACCCGG, the ETS1 binding intensity was found to be 378.

With CCCTCGGTGCGTGCGCAGCTCCGACTTCCGGGTGCT, the ETS1 binding intensity was found to be 1900.

As for CAGTGGCAGGAAGAGGTCAGAATCCACTCTTGGTGG, the ETS1 binding intensity stood at 1820.

As to CCCTCTCTTCTTCCTCCCCCACCCCAAAAGTCACAG, the ETS1 binding intensity was determined as 631.

Sequence AGCCTCCCGGACGCCGTCGCCCCCTCACACGCCCGC had an ETS1 binding intensity of 393.

Regarding TTTCCACTTCCTGTTCTACTTGGGGCTACTGACTCA, the ETS1 binding intensity was determined as 25500.

GGCTTCTTATTGTAGCTTACACTTCCTCAGTAGATG displayed an ETS1 binding intensity of 608.

Sequence AGAAACATCCTGCCCAGCCACCTGACTACAAGGCAC returned an ETS1 binding intensity of 14600.

In the case of AGAGAGACCAGCGGCTGTTTCCGCCCACTCGTCCCA, the ETS1 binding intensity was found to be 1900.

Regarding TAGACCAGTGTGCTCAGCCGCCCCTTCCTAAGCTGC, the ETS1 binding intensity turned out to be 320.

Consider CATCCAGGACGGAAACAGCATCCCCACCGAGGGAGC, for which the ETS1 binding intensity was determined as 1600.

Sequence ACTGTGTCTGGTGTTCCATAGAGGAAACTGCAAAGC gave an ETS1 binding intensity of 491.

AAAGACCTTGGGGTCCCAACTTCCTTATGTGGACAG had an ETS1 binding intensity of 709 ± 55.

In turn, AAGTGAAGAGCTTCCGCCGGGAGACCTCGGCTGCAG displayed an ETS1 binding intensity of 4160.

For CTCAGCGGCAGCAAGCCCCACCCCGGAAGTCGGCTG, the ETS1 binding intensity came out at 1590.

In turn, CCCAGAGTCCGGAATCGCTGCCTGCGCCTTGACACA had an ETS1 binding intensity of 392.

The sequence GTCACTGTCGTATTTACTTTAGCTTCCTGTTCATCC registered an ETS1 binding intensity of 1880.

As to TTTACGGGCGGGCGGCGGCGAAGGCGATCCGGCCCG, the ETS1 binding intensity is 395.

The sequence TGCCTACGGCCTGGGCTGGGTGTAGCCCCGGAACCT gave an ETS1 binding intensity of 322.

Sequence TGGGACTGTTGCCACCACCACTTCCTCTCTGCTCTG showed an ETS1 binding intensity of 1710.

As for TGCTCACATCCTCTGCAGCTTTGAGGGTGCCATCAC, the ETS1 binding intensity amounted to 4550.

Sequence GACTTCCTGTTGAAGATTGGCCTCTTCGGTAGCACA yielded an ETS1 binding intensity of 44600.

In the case of TGGTCCGTGGCTGATATTTACGGGAAATGGGGCGAG, the ETS1 binding intensity is 610.

In the case of ACGTTCGGCCCCGCGCACTCAGCATTTCCGGCTTCG, the ETS1 binding intensity was found to be 5240.

Turning to CGGGCCGGATCGCCTTCGCCGCCGCCCGCCCGTAAA, the ETS1 binding intensity was found to be 344.

ATGACCGATCAACCCCAAAGGCCGGAAATGCGTCAG returned an ETS1 binding intensity of 4020.

For GACAGTTTTCCGGCCTAGTTTACGGCTGCTCCTGCC, the ETS1 binding intensity was found to be 5000.

CTCCGCCAGCGCCCTCAGGACCCGGATGAGAGCGCA returned an ETS1 binding intensity of 402.

In the case of GTTCTGGGGAGTGCAAAAGCCCAGCAGGAAGCCGCT, the ETS1 binding intensity was found to be 465.

As to TGGGTCACGGTGGCTGTGAGGGCGGAAGAAAAGGCC, the ETS1 binding intensity came out at 361.

Regarding TATCACATCCTGCCGGACAAAAAGGCCAAAGCACCT, the ETS1 binding intensity is 13500.

Consider GGACCGGAAGTTAAGGCGTTCGCGGCGTGTGATAAG, for which the ETS1 binding intensity turned out to be 22900.

ACTCGCTCCGGCCGCCGCCCCCTCGGAAGCTGCTAG had an ETS1 binding intensity of 349.

ACCTTCGCCGCTGTCCCCAGCCTCTTCCTGTCCCGG returned an ETS1 binding intensity of 1130.

TCAATAAGACAGGATGTTCTCCAACCCCATTAAGCT displayed an ETS1 binding intensity of 3260.

CTTTGTAGGCGCTCCCTGCGTCGCGGAAGTTGGGAG returned an ETS1 binding intensity of 347.

CCGGGTAGGATCCGGTTGCCTTTCTGAGGTGGAGGA registered an ETS1 binding intensity of 2140.

Sequence ACTACAACTTCCGACTTGCATCACTGGGGTGGCGCT came in with an ETS1 binding intensity of 3220.

For GGCAGGAAGGAATGGCGGGAACGGGGCCTGCAGGGC, the ETS1 binding intensity was determined as 624.

As to GTGGACTGGAGCCCCAAGGGAGGCAGGAAGGAAGGT, the ETS1 binding intensity came to 618.

Turning to GAAGAGCAAGACCAAGTGAAGGAAACTTCACTAAGT, the ETS1 binding intensity was 379.

TGGCCTCTTCGGCCCTGGCCTTGACTTCCTTTCCTC displayed an ETS1 binding intensity of 362.

The sequence ACGTCATCGCGCAGGGCTGGCGCGTCCGGCGCAGTC returned an ETS1 binding intensity of 393.

GCAGATATCACAGACTCTCTCCTTTCCTGCTGAATA gave an ETS1 binding intensity of 546.

TTCTTCAGGAAGGCGGGCTTGCGCCGTAGGAGCGGG: the ETS1 binding intensity was determined as 315.

On to AACTTCCTTCCCGAGAGCCTGAAGCAGCCGTAGGCC, for which the ETS1 binding intensity stood at 9120.

With AAATCACATTTCCCAGAGTGCACCTCGACGGCAGGG, the ETS1 binding intensity worked out at 424.

On to GAAGAGACTCCCGCCACCTTGGCCGTTTCCCCTGAT, for which the ETS1 binding intensity was determined as 318.

TCACGTGGCCGCGCTCCGGTAACGGAAGAAACAAGA: the ETS1 binding intensity came out at 394.

As to TGCTGCACCTCGACCTCAGCTACTTCCTGCTCAGGT, the ETS1 binding intensity amounted to 3050.

Consider GATGACTTCCTCAGTTCAGGGCTATGTACGGGGGAG, for which the ETS1 binding intensity amounted to 4670.

For the sequence GGGCTTGAACGCCATGTTTGAAGCGGGCGGAAAAAA, the ETS1 binding intensity is 289.
